# From the supplement of paper PMC8728848
# The other results are listed elsewhere or left out.
# B1: PX9961V-pdi-562-26-562 (Parabacteroides distasonis) (protein)
# chain: EIFSEITTDNYYQNSNNIYAALVNNYAKAFSTGWSDARYFLQEVTADQLMIPTRGKHGYNGGEYVRLHEHKWTVEENFVYNGWAAPFQGIALCNNTLSDFENLDFSTFKLTEETKNEYIAELRALRVWNYMFLIDFFRHVPIVTDIEEVKAQSTPLEVFNFMESELLAILPDLPKNRGVSRFDQAGVASILVRLYLNAEKWIGISKYDECEQMAQAILDGKYGEYSIDPDYRGPFRSGINGYRSKENIMEFAIKKNYFEASWLYNMWMHYQDRYSLDNDWQGWNGGNLAPSRDLYGNLYQDKLGMPFEKFPDGDIRKKAFRVISNDGDYEGFFLMGTQYKFDYEKGYGFTDEVITGTEEYNGKPLVYVDQVGRFSEGETGLAKGSHVIYGEENTGYRLIKFPWLPQSKDLFQMNSIPEIRLAEIYYSLAECKYRSGDKIGAARLLDVVRKRYYKAEDWSKFSYESNISKLTDDEFVDELGREFIGERHRRIDLIRWNRFSEGAWWDKTPDATNQDVFPIPYRALNANPLLKQTTAGF
# What was measured:
# Test in all cases: glycan array binding signal (z-score within array); higher = stronger binding
# Conditions in all cases: glycan notation: IUPAC condensed, linker removed
# Fuc(a1-2)Gal = target: Fuc(a1-2)Gal
# In short: (§1)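 Glycan array data came from 3228 arrays in the Consortium for Functional Glycomics database, and only arrays with an available protein sequence were kept. Glycan names were put into IUPAC-condensed notation, and columns mapping to the same glycan were averaged. The binding signal is a within-array Z-score, averaged across arrays of one protein sequence run at different concentrations or buffers and across linkers. A negative Z-score can be read as non-binding.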
# Fuc(a1-2)Gal(b1-3)GalNAc = target: Fuc(a1-2)Gal(b1-3)GalNAc
# In short: as §1
# [1] = target: Fuc(a1-2)Gal(b1-3)GalNAc(a1-3)[Fuc(a1-2)]Gal(b1-4)Glc
# In short: as §1
# [2] = target: Fuc(a1-2)Gal(b1-3)GalNAc(a1-3)[Fuc(a1-2)]Gal(b1-4)GlcNAc
# In short: as §1
# [3] = target: Fuc(a1-2)Gal(b1-3)GalNAc(b1-3)Gal
# In short: as §1
# [4] = target: Fuc(a1-2)Gal(b1-3)GalNAc(b1-3)Gal(a1-4)Gal(b1-4)Glc
# In short: as §1
# [5] = target: Fuc(a1-2)Gal(b1-3)GalNAc(b1-4)[Neu5Ac(a2-3)]Gal(b1-4)Glc
# In short: as §1
# Fuc(a1-2)Gal(b1-3)GlcNAc = target: Fuc(a1-2)Gal(b1-3)GlcNAc
# In short: as §1
# [6] = target: Fuc(a1-2)Gal(b1-3)GlcNAc(b1-2)Man(a1-3)[Fuc(a1-2)Gal(b1-3)GlcNAc(b1-2)Man(a1-6)]Man(b1-4)GlcNAc(b1-4)GlcNAc
# In short: as §1
# [7] = target: Fuc(a1-2)Gal(b1-3)GlcNAc(b1-2)Man(a1-3)[Fuc(a1-2)Gal(b1-3)GlcNAc(b1-2)Man(a1-6)]Man(b1-4)GlcNAc(b1-4)[Fuc(a1-6)]GlcNAc
# In short: as §1
# [8] = target: Fuc(a1-2)Gal(b1-3)GlcNAc(b1-3)Gal(b1-4)Glc
# In short: as §1
# [9] = target: Fuc(a1-2)Gal(b1-3)GlcNAc(b1-3)GalNAc
# In short: as §1
# [10] = target: Fuc(a1-2)Gal(b1-3)GlcNAc(b1-3)[Fuc(a1-2)Gal(b1-3)GlcNAc(b1-6)]GalNAc
# In short: as §1
# [11] = target: Fuc(a1-2)Gal(b1-3)GlcNAc(b1-3)[Gal(b1-4)GlcNAc(b1-6)]Gal(b1-4)Glc
# In short: as §1
# [12] = target: Fuc(a1-2)Gal(b1-3)GlcNAc(b1-3)[Neu5Ac(a2-6)Gal(b1-4)GlcNAc(b1-6)]Gal(b1-4)Glc
# In short: as §1
# [13] = target: Fuc(a1-2)Gal(b1-3)GlcNAc6S
# In short: as §1
# [14] = target: Fuc(a1-2)Gal(b1-3)[Fuc(a1-4)]GlcNAc
# In short: as §1
# [15] = target: Fuc(a1-2)Gal(b1-3)[Fuc(a1-4)]GlcNAc(b1-2)Man(a1-3)[Fuc(a1-2)Gal(b1-3)[Fuc(a1-4)]GlcNAc(b1-2)Man(a1-3)]Man(b1-4)GlcNAc(b1-4)GlcNAc
# In short: as §1
# [16] = target: Fuc(a1-2)Gal(b1-3)[Fuc(a1-4)]GlcNAc(b1-2)Man(a1-3)[Fuc(a1-2)Gal(b1-3)[Fuc(a1-4)]GlcNAc(b1-2)Man(a1-6)]Man(b1-4)GlcNAc(b1-4)[Fuc(a1-6)]GlcNAc(b1-4)[Fuc(a1-6)]GlcNAc
# In short: as §1
# [17] = target: Fuc(a1-2)Gal(b1-3)[Fuc(a1-4)]GlcNAc(b1-3)[Fuc(a1-3)[Gal(b1-4)]GlcNAc(b1-6)]Gal(b1-4)Glc
# In short: as §1
# [18] = target: Fuc(a1-2)Gal(b1-3)[Fuc(a1-4)]GlcNAc(b1-3)[Gal(b1-4)GlcNAc(b1-6)]Gal(b1-4)Glc
# In short: as §1
# Fuc(a1-2)Gal(b1-4)Glc = target: Fuc(a1-2)Gal(b1-4)Glc
# In short: as §1
# Fuc(a1-2)Gal(b1-4)Glc6S = target: Fuc(a1-2)Gal(b1-4)Glc6S
# In short: as §1
# Fuc(a1-2)Gal(b1-4)GlcNAc = target: Fuc(a1-2)Gal(b1-4)GlcNAc
# In short: as §1
# [19] = target: Fuc(a1-2)Gal(b1-4)GlcNAc(b1-2)Man
# In short: as §1
# [20] = target: Fuc(a1-2)Gal(b1-4)GlcNAc(b1-2)Man(a1-3)[Fuc(a1-2)Gal(b1-4)GlcNAc(b1-2)Man(a1-6)]Man(b1-4)GlcNAc(b1-4)GlcNAc
# In short: as §1
# [21] = target: Fuc(a1-2)Gal(b1-4)GlcNAc(b1-2)Man(a1-3)[Fuc(a1-2)Gal(b1-4)GlcNAc(b1-2)Man(a1-6)]Man(b1-4)GlcNAc(b1-4)[Fuc(a1-6)]GlcNAc
# In short: as §1
# [22] = target: Fuc(a1-2)Gal(b1-4)GlcNAc(b1-2)[Fuc(a1-2)Gal(b1-4)GlcNAc(b1-4)]Man(a1-3)[Fuc(a1-2)Gal(b1-4)GlcNAc(b1-2)Man(a1-6)]Man(b1-4)GlcNAc(b1-4)GlcNAc
# In short: as §1
# [23] = target: Fuc(a1-2)Gal(b1-4)GlcNAc(b1-3)Gal(b1-4)GlcNAc
# In short: as §1
# [24] = target: Fuc(a1-2)Gal(b1-4)GlcNAc(b1-3)Gal(b1-4)GlcNAc(b1-2)Man(a1-3)[Fuc(a1-2)Gal(b1-4)GlcNAc(b1-3)Gal(b1-4)GlcNAc(b1-2)Man(a1-6)]Man(b1-4)GlcNAc(b1-4)GlcNAc
# In short: as §1
binder,measurement,setting,value
B1,glycan array binding signal (z-score),Fuc(a1-2)Gal,-0.225
same,glycan array binding signal (z-score),Fuc(a1-2)Gal(b1-3)GalNAc,-0.233
same,glycan array binding signal (z-score),[1],-0.31
same,glycan array binding signal (z-score),[2],-0.444
same,glycan array binding signal (z-score),[3],-0.756
same,glycan array binding signal (z-score),[4],-0.062
same,glycan array binding signal (z-score),[5],-0.38
same,glycan array binding signal (z-score),Fuc(a1-2)Gal(b1-3)GlcNAc,-0.423
same,glycan array binding signal (z-score),[6],1.99
same,glycan array binding signal (z-score),[7],-0.047
same,glycan array binding signal (z-score),[8],-0.698
same,glycan array binding signal (z-score),[9],-0.58
same,glycan array binding signal (z-score),[10],2.04
same,glycan array binding signal (z-score),[11],-0.627
same,glycan array binding signal (z-score),[12],-0.196
same,glycan array binding signal (z-score),[13],-0.359
same,glycan array binding signal (z-score),[14],-0.506
same,glycan array binding signal (z-score),[15],-0.178
same,glycan array binding signal (z-score),[16],-0.63
same,glycan array binding signal (z-score),[17],-0.741
same,glycan array binding signal (z-score),[18],-0.054
same,glycan array binding signal (z-score),Fuc(a1-2)Gal(b1-4)Glc,-0.419
same,glycan array binding signal (z-score),Fuc(a1-2)Gal(b1-4)Glc6S,-0.072
same,glycan array binding signal (z-score),Fuc(a1-2)Gal(b1-4)GlcNAc,-0.392
same,glycan array binding signal (z-score),[19],-0.572
same,glycan array binding signal (z-score),[20],0.815
same,glycan array binding signal (z-score),[21],-0.251
same,glycan array binding signal (z-score),[22],-0.54
same,glycan array binding signal (z-score),[23],-0.495
same,glycan array binding signal (z-score),[24],0.011
